Measurements reported in the RNAGym collection of RNA variant scans (doi:10.1073/pnas.2313332121).
This sample is rich in variants without activity.

B1: TPR 5TU (parent)
chain: GGAUCUUCUCGAUCUAACAAAAAAGACAAAUCUGCCACAAAGCUUGAGAGCAUCUUCGGAUGCAGAGGCGGCAGCCUUCGGUGGCGCGAUAGCGCCAACGUUCUCAACUAUGACACGCAAAACGCGUGCUCCGUUGAAUGGAGUUUAUCAUG

Variants of: B1
Experiment: polymerase ribozyme fitness, log enrichment relative to wild type (log ratio); higher = more active; in vitro selection for triplet polymerase activity
Outline: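 Frozen incubation at −7 °C formed the core of a single, triplicate in vitro selection round applied to PCR-built, transcribed mutant libraries of each subunit of a heterodimeric triplet polymerase ribozyme. Extended constructs were gel-excised, captured with streptavidin beads and amplified by RT-PCR, and input and output libraries were Illumina-sequenced with a filter of ≥10 input reads and ≥1 read per output. Fitness is the logarithm of genotype enrichment relative to wild-type enrichment, with inverse-variance-weighted replicate averaging, and the logarithm is base 2.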

| Variant | polymerase ribozyme fitness (log ratio) |
| --- | --- |
| C35U A47C G80U C87U | -3.9 |
| C35G A47C U139G | ≤ -4.2 |
| C35U A52C G81A G86U C95A | ≤ -4.2 |
| C35U C85A C105U U109G G141A G143U U146A A147U U148C | ≤ -4.2 |
| C35G G50A G58A A66C C75A C87U | ≤ -4.2 |
| C36A C87U G140C | ≤ -4.2 |
| A37U C96U G126U | -2.91 |
| C35U U56A C76A G83U C93G G136A G152C | ≤ -4.2 |
| C38A G59A A64C C93U | ≤ -4.2 |
| C35U U55A A73U G88A A122U | ≤ -4.2 |
| A37U C38G A97C | -1.69 |
| A37C A89C A150U | ≤ -4.2 |
| A37G G42A U56A G62A G80U C93A G141A | ≤ -4.2 |
| A37G U45A C76G U82G C93G A113C G136U | ≤ -4.2 |
| C38A C76A C79G G88U C96A G136A | ≤ -4.2 |
| A37U A41C A60C G84A U148C | ≤ -4.2 |
| C35U G46C C72U G74U C96U A107G | ≤ -4.2 |
| A37C C38A C93G C99A G126U | ≤ -4.2 |
| C35U C95G | -1.22 |
| A37C G42U G92A A119U G152A | ≤ -4.2 |
| C35G C51U C54U U56A A89G G94U C99U A137U | ≤ -4.2 |

| Variant | polymerase ribozyme fitness (log ratio) |
| --- | --- |
| C38A G80C G88C A110G | ≤ -4.2 |
| C36A G48U C96G | ≤ -4.2 |
| A37C U56G C57U G68U C75G G84A C129G | ≤ -4.2 |
| C36A U55G C57A C69G A106C G133C | ≤ -4.2 |
| C36G C93A A107C C129G U144G A147C A150U | ≤ -4.2 |
| C35G G84A U104G U109G G140U | ≤ -4.2 |
| A37C C93U G136C G141U | -3.34 |
| A37G C85U G88U A107C | ≤ -4.2 |
| C35U A60C C79U U104G A106U | ≤ -4.2 |
| C35U A52C C85U G117U | -2.29 |
| A37C G59A A66C G67A G68U G83A C96G G117A | ≤ -4.2 |
| A37C U55A G84C C99U A107G U134A | ≤ -4.2 |
| A37U U56C C69U | -2.76 |
| C35G G86U U109A A113U C114U A122U | ≤ -4.2 |
| C36A G83C C87G G117A C131G | ≤ -4.2 |
| A37C G48A C51U G86C G88A | ≤ -4.2 |
| C35G G83U A150G | ≤ -4.2 |
| A37C U55A C96U A113U A137U | -4.18 |
| A37C C93U | -1.64 |
| A37C G58A U78G U90C G126A U145A | ≤ -4.2 |
| C36A A122U G126A G136C | ≤ -4.2 |

| Variant | polymerase ribozyme fitness (log ratio) |
| --- | --- |
| C35U G46A C54G C96G A107C C118U | ≤ -4.2 |
| C38A A49C G81U C96G | ≤ -4.2 |
| C35G G62C G67C C85G C131A A147U | ≤ -4.2 |
| C36G G83U C125A G141C U145A | -4.09 |
| A37U A115C A119C | -2.95 |
| A37C A47C G71A C95U C105A U135A G140U | ≤ -4.2 |
| C38A C76A G92U G136A G152U | ≤ -4.2 |
| C35U C75U C85U G140C | ≤ -4.2 |
| C35U C54U C87G U111G A142U G152A | ≤ -4.2 |
| A37U A39C C103G A120G | ≤ -4.2 |
| A37G A39G C93G A120C G140A | ≤ -4.2 |
| C35U G128U A138C A142C | ≤ -4.2 |
| C35G U55G C85G U144A | ≤ -4.2 |
| C38A G42C C87A C118U U139A G141C A147U | ≤ -4.2 |
| C35U A37U G92C A106U C116G G141U | ≤ -4.2 |
| C35U G67A G92U | ≤ -4.2 |
| C36A A73U G92U U134G G143U | -4.13 |
| A37C U55A G68U C87U C93U G126A | ≤ -4.2 |
| C38A A49U U56G U90C | ≤ -4.2 |
| C36A C54G C57A G86A U139G | ≤ -4.2 |
| C36A G48A A60G G68C U78G C85U C93U U151A | ≤ -4.2 |

| Variant | polymerase ribozyme fitness (log ratio) |
| --- | --- |
| A37C A60U C93A U144C | ≤ -4.2 |
| C38A G59A U77A U145A A150C | ≤ -4.2 |
| A37U C51U G92U | -2.25 |
| C36G C95A U104G C114U A142U | ≤ -4.2 |
| C35G A66G G74A G83C U134G | ≤ -4.2 |
| C36G U53C C95A U102G C116G G136A | ≤ -4.2 |
| C38G A66G U77G G83U G133C U144A | ≤ -4.2 |
| A37C A49C G50U G86A G124A | ≤ -4.2 |
| A37U A49G U55G C75U G100U A138C A142G | ≤ -4.2 |
| A37C C105U A107G G141C | ≤ -4.2 |
| C38G A52G G62A U135G | ≤ -4.2 |
| A37U A66G C149U G152C | ≤ -4.2 |
| C35U G86U | -1.43 |
| A37U A97C A107C C108U | ≤ -4.2 |
| C35G A66G C85U C108G A138G U146C | ≤ -4.2 |
| A37U U90A C93U A106C | ≤ -4.2 |
| A37U C57G G88A C99A G141A | ≤ -4.2 |
| A37C U61A A66G C75U A89G A113U C114U C149A | ≤ -4.2 |
| C36A A52C C85G A120G A122U U148A | -3.85 |
| C35U U44A C54A C87U A110U | ≤ -4.2 |
